Assay results as given in PMC4336329 (PLoS ONE, 2015).
Among all 310,000 compounds or so, about 14,000 (4.5%) showed an effect of 50% or more. The effect is printed as a negative number. The list shows a part of the results.

What follows are compounds tested against human ether-à-go-go-related gene (hERG) potassium channel (human, UniProt Q12809) (assay: primary screen, population patch clamp on CHO cells stably expressing hERG).
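Also: peak tail current of the secondary pulse compared with the same well before compound.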

Sequence of human ether-à-go-go-related gene (hERG) potassium channel (Q12809 whole entry, looked up): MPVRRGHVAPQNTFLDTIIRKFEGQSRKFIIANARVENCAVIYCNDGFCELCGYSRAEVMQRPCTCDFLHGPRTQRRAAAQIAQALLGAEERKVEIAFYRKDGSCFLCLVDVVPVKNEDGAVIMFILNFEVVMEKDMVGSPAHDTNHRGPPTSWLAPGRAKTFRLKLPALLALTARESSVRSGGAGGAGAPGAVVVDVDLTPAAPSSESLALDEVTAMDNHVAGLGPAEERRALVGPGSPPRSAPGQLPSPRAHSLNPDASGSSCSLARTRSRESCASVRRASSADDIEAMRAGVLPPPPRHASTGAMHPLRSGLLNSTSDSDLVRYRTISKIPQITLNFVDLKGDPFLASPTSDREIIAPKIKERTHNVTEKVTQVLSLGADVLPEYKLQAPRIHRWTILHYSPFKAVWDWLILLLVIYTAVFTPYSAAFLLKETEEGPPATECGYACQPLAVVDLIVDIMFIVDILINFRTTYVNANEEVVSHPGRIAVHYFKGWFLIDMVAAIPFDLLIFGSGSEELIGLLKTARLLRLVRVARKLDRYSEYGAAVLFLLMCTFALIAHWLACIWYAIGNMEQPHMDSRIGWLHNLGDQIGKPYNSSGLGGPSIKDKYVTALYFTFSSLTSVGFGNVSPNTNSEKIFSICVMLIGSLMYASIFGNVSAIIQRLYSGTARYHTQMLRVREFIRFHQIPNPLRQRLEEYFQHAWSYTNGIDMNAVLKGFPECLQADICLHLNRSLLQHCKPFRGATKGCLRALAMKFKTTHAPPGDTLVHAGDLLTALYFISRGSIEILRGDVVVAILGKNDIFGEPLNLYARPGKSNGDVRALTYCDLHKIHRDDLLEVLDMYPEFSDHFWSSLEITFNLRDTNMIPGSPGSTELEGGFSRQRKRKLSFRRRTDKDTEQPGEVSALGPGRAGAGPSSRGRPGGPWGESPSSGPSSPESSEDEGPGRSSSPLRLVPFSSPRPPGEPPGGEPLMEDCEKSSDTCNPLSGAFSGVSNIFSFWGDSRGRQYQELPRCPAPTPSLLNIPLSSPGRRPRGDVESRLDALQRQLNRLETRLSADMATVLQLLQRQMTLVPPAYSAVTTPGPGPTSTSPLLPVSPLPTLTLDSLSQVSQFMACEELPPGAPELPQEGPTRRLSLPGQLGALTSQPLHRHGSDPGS

Structure (SMILES) | hERG current change (%, negative = inhibition) at 10uM
COc1cccc(CC(NC(C)=O)C(=O)NC2CCN(c3nc(C)cc(C)c3C#N)CC2)c1OC (stereo not shown) | -11.7%
O=C(O)c1cc(N/N=C/c2cccc3ccccc23)ccc1Cl | 8.05%
CCSc1ncc(Cl)c(C(=O)Nc2ccc(S(N)(=O)=O)cc2)n1 | -1.66%
N#Cc1ccccc1OCC(=O)NCC(c1ccc(F)cc1)N1CCOCC1 (stereo not shown) | -11.4%
CC(C)N(C(=NCc1ccccc1)NC(=O)c1ccccc1)C(C)C | -12.7%
O=C(CC1CCCCC1)NCCOc1ccccc1 | -4.32%
C/C(=N\Nc1cccc(C(F)(F)F)c1)c1ccc(O)cc1 | 0.916%
O=C(Cc1ccccc1)Nc1ccc(NC(=O)c2ccccc2)nc1 | 3.23%
O=C(N1CCN(c2ccccc2F)CC1)C1(S(=O)(=O)c2ccc(Cl)cc2)CC1 | 9.2%
FC(F)(F)c1cc(CCN2CCNC[C@@H]2Cc2ccccc2)cc(C(F)(F)F)c1 | -11.6%
CC(NC(=O)c1ccccc1F)C(=O)O (stereo not shown) | 16.7%
CCc1ccc(CN(C)Cc2nc(-c3cccc(Cl)c3)no2)nc1 | -19.9%
Cc1cc(NC(=O)CSc2nncn2N)no1 | 17.5%
CCOc1ccc(CCNc2nc3ccc(C)cc3n3cnnc23)cc1OCC | -25.2%
O=P1(Oc2ccccc2)CC=C[C@H](COCc2ccccc2)O1 (stereo partly shown) | 19.5%
O=C(c1cccc(S(=O)(=O)N2CCc3ccccc3C2)c1)N1CCN(c2ccccc2)CC1 | 3.99%
NC(=O)c1ccc(C(=O)c2ccc([N+](=O)[O-])cc2)cc1 | 0.854%
CN1CCN(S(=O)(=O)c2ccc(Oc3ccc(Br)cc3F)nc2)CC1 | -30.7%
Cc1c(NC(=O)CSCc2c(F)cccc2Cl)c(=O)n(-c2ccccc2)n1C | -14.6%
Cc1ccc(NC(=O)CN(C)C(=O)Cn2cc(C(F)(F)F)cc(Cl)c2=O)cc1 | -1.42%
CCOC(=O)c1c(-c2ccc(OC)cc2)csc1NC(=O)COc1ccc2c(C)cc(=O)oc2c1 | 22.8%
Cc1ccc(C(=O)CCC(=O)CCC(=O)O)cc1 | 9.2%

Structure (SMILES) | hERG current change (%, negative = inhibition) at 10uM
Cc1ccsc1/C=N/NC(=O)Nc1ccccc1 | 48%
Cn1cc([N+](=O)[O-])c(C(=O)Nc2ccc(-c3nc4ccccc4o3)cc2)n1 | 12%
CCC(CC)c1ncc[nH]1 | 17.8%
Cc1c(CC(=O)O)c(=O)oc2cc(OCc3ccc(Cl)cc3)ccc12 | 30.2%
CN(CC(=O)Nc1ccncc1)S(=O)(=O)c1ccccc1 | -0.871%
COc1ccc(-n2nc3c(N4CCC(C(=O)NC5CCCCC5)CC4)nnc(C)c3c2C)cc1 | -5.39%
N#CC(C#N)=Cc1cc2ccccc2nc1N1CCCCC1 | 2.22%
O=[N+]([O-])c1cccc(S(=O)(=O)NCc2ccncc2)c1 | 19.4%
COc1ccc(-c2c(-c3cc(OC)cc(OC)c3)n(C)c3ccc(-c4ccc(OC)nc4)cc23)cc1 | 4.5%
O=C(NCCN1CCCC1=O)Nc1ccccc1 | -5%
COc1ccc2cc3c(N)nn(C(=O)c4cccc(F)c4)c3nc2c1 | 14%
COCc1ccc(-c2c(-c3ccsc3)sc3ccccc23)cc1 | 16.2%
COc1ccc(NC2CCCN(C(=O)CSc3ccccc3)C2)cc1OC (stereo not shown) | -19.6%
COc1ccc(CN2CCNC(=O)C2CC(=O)N(C)Cc2ccncn2)c(OC)c1 (stereo not shown) | 12.6%
Nc1nonc1-n1nnc(C(=O)N/N=C\c2cccc(Cl)c2)c1CN1CCOCC1 | -44.4%
CC(C)(C)NC(=O)CN(Cc1ccc2c(c1)OCO2)C(=O)CNC(=O)c1cccs1 | 18.9%
CCOc1ccc(C(=O)NCCN2CCCCC2)c(OCC)c1 | -23.1%
O=C(NC1CCCc2ccccc21)C(Cc1ccccc1)NS(=O)(=O)c1cccs1 (stereo not shown) | -13%
O=C(CCN1C(=O)CSc2ccccc21)Nc1ccc(C(F)(F)F)cc1 | -11%
Cc1noc(NS(=O)(=O)c2ccc(NC(=O)c3nn(-c4ccccc4)ccc3=O)cc2)c1C | 23.9%
O=C(Nc1ccc(Br)cc1)C1CC=CCC1C(=O)OCC1CCCO1 (stereo not shown) | 5.38%
